According to PubChem BioAssay AID686978 (National Center for Advancing Translational Sciences (NCATS), 2013):
Several values for one entry are separate records, joined by “and”; a condition that tells them apart may be missing. Identical values can stand only once. In all, about 420,000 compounds went through this assay and about 64,000 (15%) were called active. This list was built around the results that the source calls inconclusive (neither active nor inactive); the mix of calls is not that of the screen. Calls follow the shape of the dose curve; as a rule, active = well fitted inhibition curve with a large enough effect; inconclusive = small, poorly fitted or top-dose-only effect; inactive = flat fitted curve, though single readings scatter. Where the call is inconclusive, the potency comes from a doubtful curve fit.

Assay: qHTS for Inhibitors of human tyrosyl-DNA phosphodiesterase 1 (TDP1): qHTS in cells in absence of CPT; also: nearly all actives have a fitted effect of over 55% in size
Details: DT40 Tdp1-/- hTDP1 cells, no CPT, ATP luminescence, 48 h; activity change, negative = growth inhibition: at 46.2 µM (top of the series) unless noted
Summary of the method: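 DT40 Tdp1-/-;hTDP1 cells, no CPT (DMSO vehicle only), 400 cells/well; compounds pin-transferred; ≥48 hr, 37 °C; CellTiter-Glo 30 min RT dark, luminescence read.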
% is scaled to controls: 0 for no effect and ±100 for the full control effect; potency is read from the fitted curve at half-maximal effect; tags tell the direction and shape of the fitted curve.

**Q.** Which Potency does the source give for `COC(=O)c1cc(NC(=O)c2cccs2)ccc1N1CCOCC1` here?
**A.** inconclusive: 20.6 µM [inhibitor, partial curve]

**Q.** For `CN(C)c1ccc(C(=O)NCc2ccc3c(c2)CCO3)cc1`, which Potency is on record?
**A.** inconclusive: 25.9 µM [inhibitor, single point]

**Q.** For `O=S(=O)(c1cccs1)N1CCN(c2ccc(O)cc2)CC1`, which Potency is on record?
**A.** active: 2.59 µM

**Q.** For `O=C(c1cn(Cc2ccccc2)nc1-c1cccnc1)N1CCN(Cc2ccccc2)CC1`, which Potency is on record?
**A.** inactive

**Q.** Which Potency does the source give for `Cc1c(C(=O)NCC(c2ccc(Cl)cc2)N2CCOCC2)oc2ccccc12` (configuration not stated) here?
**A.** active: 23.1 µM

**Q.** With `CC(=O)CC1c2ccccc2C=C(c2ccsc2)N1c1ccc(-c2cccs2)cc1` (configuration not stated) as the molecule, how does the Potency read?
**A.** active: 10.3 µM

**Q.** Which Potency does the source give for `CCC(=O)N1N=C(c2ccccc2)CC1c1ccccc1` (configuration not stated) here?
**A.** inactive

**Q.** For `CCC1CCCCN1Cc1ccc(CNS(=O)(=O)c2ccc3c(c2)oc(=O)n3C)o1` (configuration not stated), which Potency is on record?
**A.** inactive

**Q.** With `CC1(C)OC2CC3C4CCC5=CC(=O)C=C[C@@]5(C)[C@]4(F)C(O)C[C@@]3(C)[C@]2(C(=O)CO)O1` (some centres not stated) as the molecule, how does the Potency read?
**A.** inactive

**Q.** With `Cc1ccc(CN2CCC(CNC(=O)Nc3ccc(Cl)cc3)C2)cc1` (configuration not stated) as the molecule, how does the Potency read?
**A.** inconclusive: 23.1 µM [inhibitor, single point]

**Q.** With `CC(C)(C)S(=O)N1Cc2cc(C(=O)N3CCc4ccccc4C3)nc(-c3cccc(-c4ccncc4)c3)c2[C@H]1CCO` (some centres not stated) as the molecule, how does the Potency read?
**A.** inconclusive: 20.6 µM [inhibitor, single point]

**Q.** For `CCc1noc(C)c1C(=O)Nc1nc2c(C)cc(C)cc2s1`, which Potency is on record?
**A.** inconclusive: 14.6 µM [inhibitor, partial curve]

**Q.** With `COc1ccc(OCC(O)Cn2c(N3CCCCC3)nc3c2c(=O)[nH]c(=O)n3C)cc1` (configuration not stated) as the molecule, how does the Potency read?
**A.** inconclusive: 29.1 µM [inhibitor, single point]

**Q.** With `CC(C)c1ccc(S(=O)(=O)Nc2ccc3c(c2)OCO3)cc1` as the molecule, how does the Potency read?
**A.** inconclusive: 23.1 µM [inhibitor, single point]

**Q.** For `Fc1cc2nc(-c3ccncc3)[nH]c2cc1F`, which Potency is on record?
**A.** inconclusive: 25.9 µM [inhibitor, single point]

**Q.** For `O=C(Nc1cc(C(F)(F)F)ccc1N1CCCCC1)C1=COCCO1`, which Potency is on record?
**A.** inconclusive: 29.1 µM [inhibitor, single point]

**Q.** With `COc1ccc2c(c1)C(SCC(=O)NCc1ccccc1)CC(C)(C)O2` (configuration not stated) as the molecule, how does the Potency read?
**A.** inconclusive: 23.1 µM [inhibitor, single point]

**Q.** With `COc1cc(C)ccc1OCCOCCOc1ccc([N+](=O)[O-])cc1` as the molecule, how does the Potency read?
**A.** inconclusive: 29.1 µM [inhibitor, single point]

**Q.** With `Cc1ccc(-n2c(=O)c3cccnc3n2CC(=O)Nc2ccc(Br)cc2)cc1C` as the molecule, how does the Potency read?
**A.** inconclusive: 23.1 µM [inhibitor, single point]

**Q.** For `O=C(c1ccc(Cl)cc1)C1CCN(CC(=O)N2CCCCC2)CC1`, which Potency is on record?
**A.** inconclusive: 16.4 µM [inhibitor, single point]

**Q.** With `CCn1nc(NC(=O)c2cccnc2)c2cc3ccccc3nc21` as the molecule, how does the Potency read?
**A.** inconclusive: 16.4 µM [inhibitor, single point]

**Q.** Which Potency does the source give for `CCC(=O)N1CCc2cc(Br)cc(S(=O)(=O)CCC(=O)NCCc3cccc(C)c3)c21` here?
**A.** active: 23.1 µM

**Q.** With `CCOC(=O)c1c(C)[nH]c(C2=NNC(=NC3CC3)SC2)c1C` as the molecule, how does the Potency read?
**A.** inconclusive: 16.4 µM [inhibitor, single point]

**Q.** For `c1ccc(CCNc2cnccn2)cc1`, which Potency is on record?
**A.** inactive

**Q.** For `O=C(Nc1ccc(S(=O)(=O)N2CCCC2)cc1)c1cnccn1`, which Potency is on record?
**A.** inconclusive: 11.6 µM [inhibitor, partial curve]

**Q.** For `COc1cccc(N2CCN(CC(=O)Nc3ccccc3C(=O)NCCc3ccccc3)CC2)c1`, which Potency is on record?
**A.** active: 18.4 µM

**Q.** With `CC1CCN(C(=O)COC(=O)C2CCN(S(=O)(=O)c3ccc4c(c3)OCCO4)CC2)CC1` as the molecule, how does the Potency read?
**A.** inactive

**Q.** Which Potency does the source give for `COc1ccc(-n2nnnc2-c2ccccc2)cc1` here?
**A.** active: 2.91 µM

**Q.** With `O=C(N/N=C/c1ccc(O)c(O)c1)c1cc(-c2ccccc2)nc2ccccc12` as the molecule, how does the Potency read?
**A.** inconclusive: 2.91 µM [inhibitor, full curve]

**Q.** With `COc1ccccc1OCc1ccc(C(=O)NC(C)(C)C)o1` as the molecule, how does the Potency read?
**A.** inconclusive: 29.1 µM [inhibitor, single point]

**Q.** For `Cc1cc(C)cc(NC(=O)C(Cc2ccccc2)NS(=O)(=O)c2ccc3c(c2)c(=O)n(C)c(=O)n3C)c1` (configuration not stated), which Potency is on record?
**A.** inconclusive: 25.9 µM [inhibitor, single point]

**Q.** Which Potency does the source give for `COc1ccc(S(=O)(=O)c2ccccc2)cc1NC(=O)c1c(F)cccc1F` here?
**A.** inconclusive: 23.1 µM [inhibitor, single point]

**Q.** With `CC(C(=O)NCCCc1ccccc1)n1cccc1C(=O)c1ccccc1` (configuration not stated) as the molecule, how does the Potency read?
**A.** inconclusive: 29.1 µM [inhibitor, single point]

**Q.** For `C/C=C/Cn1c(SCc2ccc(C)cc2)nc2c1c(=O)[nH]c(=O)n2C`, which Potency is on record?
**A.** inconclusive: 18.4 µM [inhibitor, single point]

**Q.** With `CC(C)c1ccc(/C=C/C(=O)NCCCN2CCOCC2)cc1` as the molecule, how does the Potency read?
**A.** active: 20.6 µM

**Q.** With `FC(F)(F)c1ccc(-c2cccc3c2C2CC3CCN2C(=S)NCCc2ccccc2)cc1` (configuration not stated) as the molecule, how does the Potency read?
**A.** inconclusive: 18.4 µM [inhibitor, single point]

**Q.** Which Potency does the source give for `Nc1ccc(C(=O)OCC(=O)NC2CCCc3ccccc32)cc1[N+](=O)[O-]` (configuration not stated) here?
**A.** inactive

**Q.** Which Potency does the source give for `CCn1c(-c2ccc(C)cc2)nn(CC(=O)NCCc2ccccc2)c1=S` here?
**A.** active: 2.91 µM

**Q.** For `CCc1nnc(NC(=O)c2c(-c3ccccc3)noc2C)s1`, which Potency is on record?
**A.** inactive

**Q.** For `CCCCCNC(=O)C1CC=CCC1C(=O)O` (configuration not stated), which Potency is on record?
**A.** inactive

**Q.** Which Potency does the source give for `C=CCC1(Cl)C(=O)C(Cl)=C(N2CCN(C)CC2)C1(OC)OC` (configuration not stated) here?
**A.** inactive

**Q.** Which Potency does the source give for `CCOC(=O)N1CCc2c(sc(NCc3sccc3C)c2C(=O)Nc2ccc(OC)cc2OC)C1` here?
**A.** inconclusive: 23.1 µM [inhibitor, single point]

**Q.** For `COc1ccc(C2=CN3CCCCC3CC2=O)cc1OC` (configuration not stated), which Potency is on record?
**A.** inactive

**Q.** For `Cn1ncc2c(N3CCN(c4cccc(Cl)c4)CC3)ncnc21`, which Potency is on record?
**A.** active: 5.8 µM

**Q.** With `COc1ccc(N(CCC(=O)Nc2ccccc2F)S(=O)(=O)c2ccc(C)cc2C)cc1` as the molecule, how does the Potency read?
**A.** inconclusive: 13 µM [inhibitor, partial curve, poor fit]

**Q.** Which Potency does the source give for `CCOc1ccc(/C(O)=C2\C(=O)C(=O)N(c3ccccn3)C2c2ccccc2F)c(C)c1` (configuration not stated) here?
**A.** inconclusive: 25.9 µM [inhibitor, single point]

**Q.** Which Potency does the source give for `Cc1cccc(-c2nc(C#N)c(N3CCCCCC3)o2)c1` here?
**A.** inconclusive: 20.6 µM [inhibitor, partial curve]

**Q.** For `CCCCN(C(=O)Cc1ccc2c(c1)OCCO2)c1c(N)n(CC(C)C)c(=O)[nH]c1=O`, which Potency is on record?
**A.** inactive

**Q.** With `CCNc1ccc(Br)cc(C(=O)/C=C/c2ccccc2Cl)c1=O` as the molecule, how does the Potency read?
**A.** active: 10.3 µM

**Q.** With `O=[N+]([O-])c1ccc(C(O)C[n+]2ccccc2)cc1` (configuration not stated) as the molecule, how does the Potency read?
**A.** inactive

**Q.** For `COC(=O)c1cccc(N/C=C(\[N+](=O)[O-])S(=O)(=O)c2ccccc2)c1`, which Potency is on record?
**A.** inactive

**Q.** Which activity change, negative = growth inhibition does the source give for `O=C(CC1SC(=O)N(Cc2ccccc2Cl)C1=O)Nc1nccs1` (configuration not stated) here?
**A.** inconclusive: -31.9% [inhibitor]

**Q.** Which Potency does the source give for `COc1ccc(S(=O)(=O)N(Cc2ccco2)Cc2cc3ccccc3[nH]c2=O)cc1` here?
**A.** inconclusive: 29.1 µM [inhibitor, single point]

**Q.** Which Potency does the source give for `CC1S/C(=C(\C#N)C(=O)NCc2ccco2)N(Cc2ccco2)C1=O` (configuration not stated) here?
**A.** inconclusive: 29.1 µM [inhibitor, single point]

**Q.** Which Potency does the source give for `O=C(CN1C(=O)CCSc2ccccc21)Nc1ccc2c(c1)OCO2` here?
**A.** inactive

**Q.** For `CC(=O)c1cccc(-c2ccnc3c2CC(C(=O)N2CCN(C)CC2)O3)c1` (configuration not stated), which Potency is on record?
**A.** inactive

**Q.** Which Potency does the source give for `Cc1csc(NC(=O)c2sccc2C)n1` here?
**A.** inconclusive: 11.6 µM [inhibitor, partial curve]

**Q.** Which Potency does the source give for `Cc1cccc(NC(=O)c2nc[nH]c2C(=O)N(C)Cc2ccccc2)c1` here?
**A.** inconclusive: 29.1 µM [inhibitor, single point]

**Q.** Which Potency does the source give for `Cc1c(Br)cc(C(=O)N2CCCCCC2)c(C)c1C` here?
**A.** inconclusive: 16.4 µM [inhibitor, single point]

**Q.** With `COC(=O)C1=CN(c2cccc(OCc3ccccc3)c2)C(N)=C(C#N)C1c1ccc(-c2ccccc2)cc1` (configuration not stated) as the molecule, how does the Potency read?
**A.** inactive

**Q.** For `O=C(c1cccc(F)c1)N1CCC2(CC1)CN(c1ccccn1)C2`, which Potency is on record?
**A.** inconclusive: 16.4 µM [inhibitor, partial curve]

**Q.** With `O=C(c1ccccc1)N1N=C(c2ccccc2)CC1c1ccccc1` (configuration not stated) as the molecule, how does the Potency read?
**A.** inconclusive: 25.9 µM [inhibitor, single point]

**Q.** Which Potency does the source give for `CC(C)(CNC(=O)c1ccc(S(=O)(=O)Nc2cccc(C(F)(F)F)c2)cc1)N1CCOCC1` here?
**A.** inconclusive: 20.6 µM [inhibitor, partial curve]

**Q.** With `COc1cc(C(=O)NC2CCCc3ccccc32)ccc1OCC(=O)Nc1ccc(F)cc1` (configuration not stated) as the molecule, how does the Potency read?
**A.** inconclusive: 11.6 µM [inhibitor, partial curve, poor fit]

**Q.** For `COc1ccc(-c2cc3onc(-c4c(Cl)cccc4Cl)c3c(=O)n2C)cc1`, which Potency is on record?
**A.** inconclusive: 18.4 µM [inhibitor, single point]

**Q.** For `O=S(=O)(NC1CC1)c1ccc(S(=O)(=O)N2CCc3ccccc32)cc1`, which Potency is on record?
**A.** inconclusive: 20.6 µM [inhibitor, partial curve]

**Q.** With `CCCOc1cc(N)ccc1C(=O)OCCN(CC)CC` as the molecule, how does the Potency read?
**A.** inactive and inconclusive: 8.05 µM [inhibitor, partial curve, poor fit]

**Q.** Which Potency does the source give for `NC1=C(Br)C(=O)c2ncccc2C1=O` here?
**A.** active: 1.64 µM

**Q.** For `COc1ccc(CN2CCC(CO)(Cc3cccc(C(F)(F)F)c3)CC2)cc1Cn1cccn1`, which Potency is on record?
**A.** active: 18.4 µM

**Q.** Which Potency does the source give for `COc1ccc(C)cc1-n1nnnc1SCc1nc2ccccc2c(=O)[nH]1` here?
**A.** active: 9.2 µM

**Q.** For `CC1(C)CN(C2CCCCC2)C(=O)[C@H]1CC(=O)Nc1ccc(Br)cc1`, which Potency is on record?
**A.** active: 18.4 µM

**Q.** Which Potency does the source give for `Cn1c(NCCOc2ccccc2Cl)nc2cc(-c3ccc(F)cc3)sc2c1=O` here?
**A.** inconclusive: 18.4 µM [inhibitor, single point]
